The text below walks through data of PubChem BioAssay AID1346428 (National Center for Advancing Translational Sciences (NCATS), 2018).

Hit rate of the full screen: of about 48,000 compounds, about 1,200 (2.5%) were called active. Not shown: some 2% with an inconclusive outcome.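 Rule for the calls: active = activation of at least 60% and not above a set upper limit (about 1 call in 100 departs from these limits); inconclusive = activation of 40% to 60%, or above that upper limit; inactive = activation under 40%.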 This is one part of the list.

This assay has as its target Probable G-protein coupled receptor 32 (Homo sapiens) (UniProt O75388). As to the kind of experiment: qHTS for Agonists of Human Resolvin D1 Receptor DRV1. Note: 0% is about no effect. The settings on record: CHO-K1 GPR32 beta-arrestin PathHunter luminescence, 90 min; at 76.9 µM; stronger effect = higher value; zero percent set by DMSO-only wells. The method, boiled down: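 PathHunter beta-arrestin recruitment in CHO-K1 cells stably expressing ProLink-tagged GPR32. Cells were exposed to compound for 90 min at 37 C, then chemiluminescence was read after 1 h detection at ambient temperature; DMSO served as basal control.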
UniProt O75388, sequence (O75388 whole entry, looked up): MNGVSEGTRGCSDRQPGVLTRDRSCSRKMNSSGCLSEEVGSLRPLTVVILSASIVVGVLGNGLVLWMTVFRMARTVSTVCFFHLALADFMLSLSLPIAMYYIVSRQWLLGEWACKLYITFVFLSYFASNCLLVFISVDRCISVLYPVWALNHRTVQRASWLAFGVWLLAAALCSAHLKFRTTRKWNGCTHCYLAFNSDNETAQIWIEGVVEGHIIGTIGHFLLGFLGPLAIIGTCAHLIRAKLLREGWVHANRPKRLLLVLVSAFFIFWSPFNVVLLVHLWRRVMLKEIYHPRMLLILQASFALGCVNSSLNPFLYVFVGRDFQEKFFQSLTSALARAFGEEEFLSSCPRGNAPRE
Consider `Cc1ccc(CNC(=O)CN(c2cc(C)cc(C)c2)S(=O)(=O)c2c(C)noc2C)cc1`, for which the activation was inactive: 11.7%.
The result for `O=C(Nc1cccc(Br)c1)c1cc(-c2ccc3c(c2)OCCO3)on1` reads inactive: 28.3%; that for `Cc1nc2ccn(Cc3cccs3)c(=O)c2cc1C(=O)N1CCN(c2ccccc2)CC1`, inactive: -19%; that for `COC(=O)c1ccccc1NC(=O)c1ccc2c(Cl)c3c(nc2c1)CCCC3`, inactive: 25.4%.
On to `COc1ccc2c(c1)cc1c(=O)n(CC(=O)NCCc3ccccc3)nc(C)n12`, for which the activation is inactive: -4.05%.
Take `CCOC(=O)Cc1ccc(NC(=O)N2CC(C)Oc3ccc(Cl)cc32)cc1` (centres undefined): the activation was inactive: -28%.
Take `COc1cc2nc(NCc3ccccc3)n3nc(-c4ccccc4)nc3c2cc1OC`: the activation is inactive: -0.752%.
For `CCOC(=O)c1cc(-c2ccccc2)n(-c2cccc(C(=O)N(C)c3ccc(C)cc3)c2)c1C` the value was inactive: -34.2%; for `Fc1ccc(N2CCN(Cc3cccn3-c3nnc(N4CCN(C5CCCCC5)CC4)s3)CC2)cc1`, inactive: -5.98%.
Regarding `CCc1ccc(-c2nc(CSCC(=O)N3CCN(c4ccc(F)cc4)CC3)c(C)o2)cc1`, the activation is inactive: -11%.
As to `Cc1ccc(NC(=O)C2CCCN(c3cnccn3)C2)c(C)c1` (centres undefined), the activation is inactive: -3.52%.
On to `Nc1ncnc2nc[nH]c12`, for which the activation is inactive: -55.6%.
For `CCc1ccccc1NC(=O)c1cc2c(Cl)nc3ccccc3c2s1`, the activation is inactive: -7.14%.
For `CCOC(=O)c1ccc(NC2=CC(c3ccc(F)cc3)N(c3ccc(C(=O)OCC)cc3)C2=O)cc1` (centres undefined), the activation is inactive: -3.51%.
`CCOc1ccccc1NC(=O)c1cc2c(=O)n(Cc3cccnc3)ccc2nc1C`: the activation was inactive: -2.63%.
For the compound `CCCOc1cccc(C(=O)Nc2ccc(-c3cc4ccccc4oc3=O)c(C)c2)c1`, the activation was inactive: -7.83%.
For `Cc1cccc(C)c1NC(=O)CCS(=O)(=O)c1cccc2nonc12` the value was inactive: 30.1%; for `Cc1c(NC(=O)c2ccc(Br)o2)cccc1-c1nc2ccccc2o1`, inactive: 9.73%.
With `CCOC(=O)c1c(C)[nH]c(C)c1S(=O)(=O)N1CCC(C(=O)Nc2ccc(C)c(Cl)c2)CC1`, the activation was inactive: 9.72%.
On to `CC(=O)Nc1ccc(Nc2ncnc3c2c(-c2ccccc2)cn3-c2ccc(C)c(Cl)c2)cc1`, for which the activation is inactive: -24.5%.
For the compound `CCCSc1nc2sc3c(c2c(=O)n1-c1cccc(Br)c1)CC(C)(C)OC3`, the activation is inactive: -10.3%.
As to `Cc1ccccc1Cn1c(SCc2ccc(C(=O)NC3CCCC3)cc2)nc2ccncc21`, the activation was inactive: 3.65%.
Take `C=CCN1CCc2cc(O)c(O)cc2C(c2ccccc2)C1` (centres undefined): the activation was inactive: -2.48%.
Consider `Cc1nc2c(c(C)nn2-c2ccccc2)c(C)c1CCC(=O)NCCc1ccc(Cl)cc1`, for which the activation is inactive: -14.5%.
Turning to `COc1cccc(NC(=O)N2CCN(C(=O)c3nsc4ccccc34)CC2)c1`, the activation is inactive: -21.8%.
Turning to `COc1ccccc1CNC(=O)CCNS(=O)(=O)c1cccc2nsnc12`, the activation is inactive: -0.209%.
For `COc1ccccc1N=c1scc(-c2ccc(S(=O)(=O)N3CCCC3)cc2)n1C` the value was inactive: 45.6%; for `COc1cc(C2NC(=O)c3c(sc4c3CCN(C)C4)N2)ccc1OC(=O)c1ccccc1` (centres undefined), inactive: -7.68%.
In the case of `COc1ccc(NC(=O)N2CCN3CCCCC3C2)cc1OC` (centres undefined), the activation was inactive: -1.68%.
On to `COc1ccc(C(=O)Nc2ccccc2-c2nc3ccccc3s2)c(OC)c1`, for which the activation was inactive: -7.83%.
Take `CCOc1cc(C2Sc3ccccc3NC3=C2C(=O)c2ccccc23)ccc1O` (centres undefined): the activation is inactive: -55.8%.
Consider `COc1ccc(Nc2cc(C(=O)NCCCN(C)Cc3ccccc3)c3ccccc3n2)cc1`, for which the activation was inactive: -33%.
With `CCOC(=O)c1ccc(NC(=O)CC2C(=O)N(c3ccc(F)cc3)C(=O)N2Cc2ccc(C)cc2)cc1` (centres undefined), the activation is inactive: -14.3%.
For `CCOC(=O)c1cnc2ccc(Cl)cc2c1Nc1ccc(OCC)cc1` the value was inactive: -32.5%; for `CC(=O)c1ccc(NC(=O)CSc2nc(C3CCCC3)nc3c2c(=O)n(C)c(=O)n3C)cc1`, inactive: 2.19%.
As to `Cc1nc(-n2nc(C)c(CCC(C)C)c2C)sc1C(=O)Nc1ccc(Br)cc1`, the activation was inactive: 1.48%.
For `Cc1cccn2c(=O)cc(COc3cccc(NC(=O)COc4ccccc4)c3)nc12` the value was inactive: -23.9%.
`CC(C)OCCCNC(=O)CSc1c2c(nc3ccc(Cl)cc13)CCCC2`: the activation was inactive: -14.9%.
As to `COc1cccc(-c2nc3c(c(SCC(=O)Nc4cc(C)ccc4C)n2)Cc2c(CO)cnc(C)c2O3)c1`, the activation was inactive: -1.5%.
Take `CCOC(=O)N1CCc2c(sc3c2c(=O)n(Cc2ccccc2)c(=O)n3Cc2ccc(C)cc2)C1`: the activation is inactive: -13.1%.
For the compound `COc1ccc(CCNC(=O)CCCn2c(SCC(N)=O)nc3cc4c(cc3c2=O)OCO4)cc1OC`, the activation is inactive: -8.41%.
For `CSc1ccc(CNC(=O)CCc2c(C)nn(-c3ccc(N4CCCC4)nn3)c2C)cc1`, the activation is inactive: -19.9%.
The result for `CC1CCN(c2oc(-c3ccc(COc4ccc(Cl)cc4)o3)nc2C#N)CC1` reads inactive: -9.77%.
The result for `CCCCOc1ccccc1C(=O)Nc1onc2c1CCCC2` reads inactive: -12.3%; that for `COc1ccc(CNC(=O)C2=C(C)C(=O)OC23CCN(C(C)=O)CC3)cc1`, inactive: -0.119%.
For `Cc1cc(C)c2nc(NC(=O)c3ccc(S(=O)(=O)N4CCC(C)CC4)cc3)sc2c1`, the activation was inactive: 7.29%.
As to `CCOc1ccccc1CNC(=O)c1ccc(Cn2c(SCc3ccccc3)nc3cccnc32)cc1`, the activation is inactive: -16.8%.
The result for `CC(C)OC(=O)/C(C#N)=C/c1ccc(-c2ccc(Cl)c(Cl)c2)o1` reads inactive: 26.5%; that for `CCc1ccc(NC(=O)Cn2c(-c3cncs3)nc3ccccc32)cc1`, inactive: -14.1%; that for `Cc1ccc(NC(=O)Cn2c(=O)n(Cc3ccc4c(c3)OCO4)c(=O)c3ccc(C(=O)NC4CCCCC4)cc32)c(C)c1`, inactive: -10.4%.
`COc1ccc(C)cc1NC(=O)c1ccc2c(c1)nnn2C1CCCC1`: the activation was inactive: 5.24%.
Regarding `COc1ccccc1C(=O)Nc1ccc(OCc2cc(=O)n3cc(C)sc3n2)cc1`, the activation is inactive: 0.779%.
As for `CCn1c2ccccc2c2cc(CN3CCN(Cc4ccccc4C)CC3)ccc21`, the activation is inactive: -12.3%.
Regarding `O=C(c1ccc2c(c1)N(Cc1cccc(Cl)c1)C(=O)c1ccccc1S2)N1CCOCC1`, the activation is inactive: 4.03%.
